Reference: the RNAGym collection of RNA variant scans (doi:10.7554/elife.90254)
The source gives no read counts; variants with many changes may rest on few reads.

B1: LINE1-mini (parent)
chain: GGCAGAGCUCAACACAGCGUGGCAAAGUGGCUGUGGCUAGACUGCC

Variants of: B1
Assay: self-cleavage, relative activity (ratio to wild type); higher = more cleavage; in vitro, sequencing; the parent is a self-cleaving ribozyme

Variant | self-cleavage
G19U G29C U38C | 0.13
G19C G30A U43A | 0.06
G19U U20A C37G A41U | 0.04
G19U C31U G35U | 0.02
G19C U20A C46A | 1.41
G19A G21C C23A A25C U43A | 0.04
G19U G27A G30A C45U | 0.42
G19U C23U G29C G35C G44U | 0.12
G19U G30C U32A G35U U43A | 0.02
G19U G22A C23G | 0.12
G19A U20A C23A U28G C37U C45U | 0.1
G19U G27A A41U | 0.21
G19A G21A U34C A41U | 0.62
G19C A41C C45U | 0.05
U20A A41G C42U | 0.06
G19A G27C G29U | 0.63
G19U C37A A41C | 0
G19C U38C G40U | 0.04
G19U C23G G44C C45A | 0.01
G19U A24G A26C A39U A41G | 0.09
G19U G22A G29U G44A | 0.2
G19A G36U C45G | 0.18
G19C G44U C45A | 0.04
G19C C23U A25G G40C | 0.1

Variant | self-cleavage
G19C G21U U38A A41C | 0.06
G19U G21U G27A G40U | 0.13
G19A C42U C45U | 0.53
G19U C23A C46A | 2.58
G19U G21C G35C | 0.11
G19U G21C G35U | 0.02
G19U G21A G27U G33A U38A | 0.1
G19C G30A U38G | 0.03
G19A G36U A39U C42A | 0.01
G19C A26U U28G | 0.52
U20A C23U G29U | 0.29
G19A U20G C31A G44U | 0.02
G19A G29A G36A | 0.52
G19U A25G A26U U34A | 0.04
G19C A26U U43C | 0.03
G19U U34C G40C A41G | 0.08
G19A G29C G30U | 0.96
G19A G29A G35U | 0.05
U20A C23U G35C | 0.16
G19U C23U C42U | 0.04
G19U A39G G40U | 0.03
G19C U20C G21A A25U C37A U38C A39U | 0.02
G19C G30U U34C U43A | 0.16
U20A A24C A41G | 0.04

Variant | self-cleavage
G19U G21U C23U | 0.4
G19A G40U G44U | 0.2
G19C G29U U38G C46G | 0.04
G19U C23A G40C A41U C45G | 0.02
U20A C23A G40U C45U | 0.04
G19U U20G A24G A26C | 1.16
G19C U20G G33U | 0.1
G19A G22A G33U | 0.11
G19U G21U C37G U43A | 0.01
G19U C23G G27A U32A | 0.11
G19A G30A U34G A39C | 0.02
G19U C23A A24C G33C | 0.08
G19U U20A U28A G40C | 0.02
G19A G21A A26G G27A G29A | 2.94
G19A G27U G44A C46G | 0.07
G19A G22U G40U | 0.1
G19U U28C G40C | 0.09
G19U G22U A25U A26C C37U A41U | 0.05
G19U A26G G36A G40A | 0.05
G19C A24U U43A G44U C45A C46A | 0.1
G19C G22U C23U C31A | 0.28
G19U C42U C45A | 0.03
U20A A39C G44U | 0.03
G19C G33A U38A | 0.22

Variant | self-cleavage
G19C G35C U43C | 0.02
G19U C37A C42G | 0.03
G19C A39G C42U | 0.06
G19U U28G G33A C42G | 0.03
G19U C23G A24U G30A A41C U43A C45G | 0.03
G19C U43G G44U | 0.07
G19U G21A A24U C42A C46U | 0.11
G19C A41U C46U | 0.47
G19U G22C C23A | 0.28
G19U C31G C46A | 0.04
G19U G29C G44A | 0.18
G19C G29U U34A G44A C46G | 0.16
G19U U20C G22U A25U | 0.8
G19A G44A C46G | 0.1
G19A G33A C46U | 0.04
G19C G40U C45G | 0.08
G19C G30A U34A | 0.04
G19U G30C G44U | 0.05
G19A U34A U38A | 0.23
G19U A25U G33C C42A | 0.03
G19C C23G G27U U34A | 0.34
G19U G44U C46A | 0.04
G19C U20A G35U A39C | 0.03
G19U G21A G29A U34C C42A | 0.06

Variant | self-cleavage
G19A G21U A39G | 0.07
G19U G30U C46A | 1.14
G19U G29C G30A G35C | 0.04
G19A G33U C37U | 0.08
G19A G33A A39G | 0.07
G19U G33U U38C A39U C46U | 0.07
G19C C23G G33C G40A | 0.02
G19A G21A C23U | 0.2
G19A G21U G22C G36U U38G | 0.03
G19U G22A G35U | 0.1
G19A U20G G29U | 0.5
G19U A25C U38C | 0.27
G19C U20G A25C G35C | 0.03
G19A G29A U38C | 1.65
G19C C31U U32C | 0.1
G19U U28C C31A | 0.02
G19A U38G G44A | 0
G19U U34A A41U | 0.07
G19U G22A G30U C37G | 0.09
G19C G29A C45A | 0.34
G19U G29U C46G | 0.46
G19U G29U G44U | 0.18
G19U G29U G44C | 0.09
U20A C23A A26U | 0.67

Variant | self-cleavage
G19C A24C G36A G40C | 0.07
G19U G29U G35U U38G | 0.04
G19C U20G G40A | 0.02
U20A A24U U34A | 0.11
G19C G21U U28C G35C C42U | 0.01
G19A U20A A24G U28C G40A | 0.07
U20A A39C A41G | 0.03
G19U G21A A25U A26U | 2.68
G19A G27A G29C C45A | 0.75
G19A G21U C46U | 0.34
G19U G27A G30A U38C | 0.12
G19C G21A C31U A41G | 0.04
G19U U20A C23U G40U C45A | 0.01
G19C A25G U34A C37A | 0.08
G19C G22A C45A | 0.31
G19U G33C A39U | 0.02
G19C A25G U32C G44U | 0.01
G19C G22A G40A | 0.04
G19C U34C C46A | 0.21
G19C G27U C31U U38C | 0.1
G19U G27C G40C C46U | 0.01
G19C U20A G21A G29U C37U | 0.01
G19A G22U U28C G30A | 1.08
G19A G33A C37G G44A C46G | 0.04

Variant | self-cleavage
G19U G40U A41G | 0.05
U20A A25G G29U A41G | 0.2
G19C A26U G30C U34G | 0.04
G19C U38G G40U C42G | 0.01
G19A G29C C31G | 0.55
G19C G21U U32C | 0.26
G19C G22A A41C | 0.04
G19C C23G A24C | 0.78
G19A G27U U28C U38C C42A | 0.06
U20A A25C G29C | 1.51
G19C A26C U38A C46U | 0.06
G19A G29U G35C | 0.15
G19A G22A G29C G36A | 0.01
G19U G21A C31U A39G G44U | 0.15
G19U C23U G29A G35U | 0.05
G19C G27A A41G G44C | 0.01
G19C A24C G35U A39G | 0.03
G19C A26U G29C C31G | 0.47
G19A G29U C46A | 0.59
G19C G21U G22A G30U U34A G44C | 0.07
G19C G29U C45U | 0.68
U20A A26C G33U C45G | 0.08
G19U G30C C31A C46U | 0.21
